Data: PubChem BioAssay (NCI)
Where “and” joins values, the source holds several entries; their conditions need not be identical. Equal values may be shown once.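 Results reflect a 48-hour exposure of cells in 96-well plates to compound at five concentrations. At the GI50, growth is halved. TGI marks complete inhibition of growth.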

system: NCI-H322M lung; test: inhibition of tumour cell growth, NCI panel, 48 h

Compound	TGI [µM]	GI50
N=C1N(S(=O)(=O)c2ccccc2)[C@@H](Cc2ccccc2)[C@H](c2ccccc2)C1(c1ccccc1)c1ccccc1	> 100	–
O=C(O)COc1ccc(O)c2c1C(=O)CCCC2=O	> 100	–
COc1cc(/C=C\c2ccc(C)cc2)cc(OC)c1OC	> 100	–
CO/C(=N\N=C\c1cccc(Cl)c1)c1ccncc1	> 10	–
COc1cc2nc(-c3ccc4ccccc4c3)[nH]c(=O)c2cc1OC	> 100	–
N#CC(C#N)=C1C(C#N)=C(N)NC12OCCO2	> 100	–
CC(C)CNCC(O)COc1ccc(C(C)(C)c2ccc(OCC(O)CNCC(C)C)cc2)cc1 (configuration not stated)	17.9	5.17 µM
NC1CCCCC1.[O]=[Ge].[O]=[Ge].[O]=[Ge][OH].[O]=[Ge][OH]	> 100	–
OCC1OC(n2cnc3cncnc32)C(O)C1O (configuration not stated)	5.39	–
CCO/C=C/C(C)C1(C(=O)OCC)CCCCC1=O (configuration not stated)	> 100	–
Cc1nc2c3c(ncn2n1)Oc1c(c(-c2ccccc2)nn1-c1ccccc1)C3c1ccc(Cl)cc1 (configuration not stated)	> 100	–
CCNc1ccc2c(c1)Cc1ccccc1-2	> 100	–
CCCCCCCNc1nc(C(=O)OCC)ncc1-c1ccc(C(F)(F)F)cc1	> 100	24.7 µM
O=C(/C=C/C12c3ccccc3C(c3ccccc31)C1C(=O)N(c3ccccc3)C(=O)C12)c1ccccc1 (configuration not stated)	> 100	2.88 µM
CC(=O)OCC1OC(n2c3c(c(-c4cccc5ccccc45)c(C#N)c2=S)CCCC3)C(OC(C)=O)C(OC(C)=O)C1OC(C)=O (configuration not stated)	> 100	–
Nc1ncnc2c1ncn2C1CCC(COS(N)(=O)=O)C1 (configuration not stated)	> 100	–
Cc1ccc(S(=O)(=O)NNC(=O)c2cc(C)ccc2NC(=O)C23CC4CC(CC(C4)C2)C3)cc1	91.1	–
CCOC(=O)C1=C(C(=O)c2ccc(C)cc2)C(c2cccc([N+](=O)[O-])c2)C(C(=O)c2ccc(C)cc2)=C(C(=O)OCC)N1	47.2	–
O=Nc1c(-c2c(O)[nH]c3ccc([N+](=O)[O-])cc23)[nH]c2ccc(O)cc12	> 95.7	0.454 µM
COc1nc2c(c(=O)n1C)N[C@H]1[C@H](OC(C)=O)[C@@H](OC(C)=O)CO[C@H]1N2	> 100	–
Clc1ccc(Cc2nc3ccccc3nc2-c2cccc(Br)c2)cc1	32.3	–
CCCn1c(SC)nc(COC(=O)NC)c1COC(=O)NC	> 100	–
Cc1ccc(C(=O)O)c(CC2Cc3c(C)cccc3C2=O)c1 (configuration not stated)	> 100	–
O=C1C=CC=CC2CC=C[C@@H](O)C12 (some centres not stated)	74.1	–
Cc1cccc2c1[nH]c1[nH]c(=O)[nH]c(=O)c12	> 100	–
O=Cc1ccccc1OCCOc1cc(OCCOc2ccccc2C=O)c(OCCOc2ccccc2C=O)cc1OCCOc1ccccc1C=O	> 100	–

Compound	TGI [µM]	GI50
C=CC1[C@H]2COC(C)(C)O[C@@H]2CC(=O)C1(C)C (some centres not stated)	> 100	–
COc1ccc(/C=c2\[nH]c3nc(=O)c(N4CCOCC4)c(N)n3c2=O)cc1	> 100	–
CC12N=NN(c3ccc([N+](=O)[O-])cc3)C1(O)c1ccccc1C2=O (configuration not stated)	> 100	–
CN(C)c1nc(N(C)C)nc(N(C)C23CC4CC(CC(C4)C2)C3)n1	> 100	–
CC1CC#CCOC(=O)CCCC1=O (configuration not stated)	> 100	–
CC1(C)C(=O)C(C)(C)C1=NN	> 100	–
O=C(CSCC(=O)N/N=C/c1cccs1)N/N=C/c1cccs1	> 100	–
O=C(O)C1C2CCC(O2)C1C(=O)N1CCCCC1 (configuration not stated)	77.3	–
CCOC(=O)C1=C(c2ccccc2)N(C)c2ccccc2S1	> 100	–
COc1ccc2c(c1)C(N)=C(c1ccccc1)C2=O	> 100	–
C=CCN(/C=C1/C(=O)O[C@H](COC)[C@@]2(C)C1=C(O)C(=O)C1=C2[C@H](OC(C)=O)C[C@]2(C)C(=O)CC[C@@H]12)CC=C	> 10	0.389 µM
COC(=O)C1CCC(=O)N1C(=O)Cc1ccc(OC)cc1 (configuration not stated)	> 100	–
CCCCCCCCCCCCCCN	> 100	–
C1C[OH+]CC[OH+]CCNCC[OH+]CC[OH+]CCN1.[Cl-].[Pt+4]	> 100	> 100 µM
O=[N+]([O-])c1ccc2nc(-c3ccccn3)c(-c3ccccn3)nc2c1	> 100	–
Clc1ccc(Cc2nc3ccccc3s2)c(Cl)c1	41.7	–
Cc1ccc(/C(=N\N=C(N)N)c2ccccc2)cc1	15.8	0.521 µM
COC[C@@H](N=CN1CCc2cc(OC)c(OC)cc2[C@@H]1C)C(C)(C)C	> 100	–
Cc1ccc(C2=NOC(=O)[C@@H]3CCCC[C@@H]23)cc1	> 100	–
FC(F)(F)c1cc(-c2nnc3n2N=C(N2CCCC2)CS3)cc(C(F)(F)F)c1	> 50	> 50 µM
CC1OC(OCC2OC(Oc3c(-c4ccc(O)cc4)oc4cc(O)cc(O)c4c3=O)C(OC3OC(C)C(O)C(O)C3O)C(O)C2O)C(O)C(O)C1O (configuration not stated)	> 100	–
O=C(O)[C@@H]1[C@H](C(=O)O)[C@H](C(=O)O)C[C@@H]1C(=O)O	> 100	–
COc1cc(/C=C\c2ccccc2)cc(OC)c1OC	> 100	–
O=CC(O)C(O)C(O)C(O)C(=O)NCCCCCCCCCCCCNC(=O)C(O)C(O)C(O)C(O)C=O (configuration not stated)	> 100	–
CCOC(=O)C(NC(=O)N(C1=NCC(C)S1)C1CCCCC1)(OC)C(F)(F)F (configuration not stated)	> 100	–
Cc1cc(/C=C\c2ccc3ccccc3[n+]2C)c(O)c2ncccc12	3.04	0.382 µM

Compound	TGI [µM]	GI50
Cc1ccc(C(C)(C)C[P+](C)(c2ccccc2)c2ccccc2)cc1	> 100	–
O=[N+]([O-])c1ccc(S(=O)Cc2ccccc2)c([N+](=O)[O-])c1 (configuration not stated)	31.1	16.4 µM
COc1nc(N(C)C)nc2c1n(C)c[n+]2C	> 100	–
Cc1cc(C)c(P2C(=C(O[Si](C(C)C)(C(C)C)C(C)C)C(C)(C)C)C2(c2ccccc2)c2ccccc2)c(C)c1 (configuration not stated)	> 100	–
O=C(Nc1ccc(F)cc1)c1ccc(NC2=C(Cl)C(=O)N(Cc3ccccc3)C2=O)cc1	39.3	13.7 µM
C/C=C\C(CC(=O)NCCc1cn(C(=O)OCc2ccccc2)c2ccccc12)CC(=O)OC (configuration not stated)	> 100	–
COC(=O)C(C(=O)C(=O)Nc1ccc(C(F)(F)F)cc1[N+](=O)[O-])c1csc(-n2nc(-c3ccccc3)cc2-c2ccccc2)n1 (configuration not stated)	> 100	–
O=C(c1ccccc1)C1CCCCN1C(=O)c1ccccc1 (configuration not stated)	> 100	–
COc1ccc2c(c1)C(=O)c1c-2n(CCCN=[N+]=[N-])c(=O)c2cc(N(C)C)ccc12	> 100	> 100 µM
COc1cc(CCN)c2c(c1OC)SSSSS2	4.12	1.49 µM
CC1(C)CC[C@H](Nc2ncc(C(F)(F)F)c(-c3c[nH]c4c(P(C)(C)=O)c(C#N)ccc34)n2)CN1	16.1	0.274 µM
CSC(CC(=O)O)C(=O)O (configuration not stated)	> 100	–
CC(=O)Nc1ccc(C(=O)NN2C(=O)C(Cl)C2c2ccc([N+](=O)[O-])cc2)cc1 (configuration not stated)	> 100	–
CCN(CC)CCNc1ccc([N+](=O)[O-])c2sc3ccccc3c(=O)c12	2	0.409 µM
CCCNCCCC(NC(C)=O)C(=O)NCc1ccccc1 (configuration not stated)	> 100	–
Cc1ccc(S(=O)(=O)NCCNC2=CC(=O)c3nc4ccccc4c4ccnc2c34)cc1	39.2	16 µM
COc1ccccc1/C=C/[N+](=O)[O-]	5.87	2.35 µM
CC1CCP(=O)(c2ccccc2)c2ccccc21 (configuration not stated)	> 100	–
C=C(CCCCCCCCC)CC(=O)SCCNC(=O)CCNC(=O)C(O)C(C)(C)COP(=O)(O)OP(=O)(O)OCC1OC(n2cnc3c(N)ncnc32)C(O)C1OP(=O)(O)O (configuration not stated)	> 100	–
COc1ccc(Nc2ncc(Br)c(NCCCNC(=O)C3CCC3)n2)cc1	51.5	16.5 µM
C=C(CCC(C)C1CCC2C3=C(C(=O)CC21C)C1(C)CCC(=O)[C@@H](C)C1CC3=O)C(C)C(=O)O (some centres not stated)	> 100	–
CCOC(=O)/C(O)=C/c1cc(OC)cc(=O)o1	> 100	–
CN1CCN(c2ccc(NC(=O)c3nc4ccc5[nH]ncc5c4c4c3CCCC4)cc2C(F)(F)F)CC1	3.06	1.15 µM
COC1=CC(=O)C2C(C1=O)[C@@H]1c3ccccc3C[C@H]21 (some centres not stated)	> 100	–
C[C@H](NC(=O)[C@@H]1CSSC[C@@H](NC(=O)c2nc3ccccc3cc2O)C(=O)NCC(=O)N1C)c1ccccc1	19.8	6.99 µM
COC(=O)C1C(O)CC(c2ccccn2)N(Cc2ccccc2)C1c1ccccn1 (configuration not stated)	> 100	–

Compound	TGI [µM]	GI50
C(=C\c1cccc(/C=C/c2ccccn2)n1)/c1ccccn1	> 100	–
COc1cc2c(c(OC)c1OC)-c1ccc(N)c(=O)cc1[C@@H](NC(C)=O)CC2	> 100	0.053 µM
COc1ccc(N2Cc3cnc(Nc4ccccc4)nc3N([C@@H]3CC[C@@H](O)C3)C2=O)cc1	> 25	8.35 µM
CN1CCN(c2c(Cl)cc(Cl)c3[nH]c4ccccc4c(=O)c23)CC1	38.5	–
O=C(Nc1cccs1)c1c(O)[nH]c(=S)[nH]c1=O	> 100	–
Nc1nc(-c2ccccc2N=NN2CCCC2)nc2ccccc12	6.09	–
c1ccc(CCNCc2ccco2)nc1	> 100	–
[Cl][Pt+2][Cl].[NH-]C1CCCCC1[NH-] (configuration not stated)	> 100	15.7 µM and 36.2 µM and 10.8 µM
CS(=O)(=O)OCCN1CCN(C(=O)c2cccc3c(Nc4ccc(S(=O)(=O)N=C(N)N)cc4)c4ccccc4nc23)CC1	> 100	–
CC(C)C1(O)C(c2ccccc2)=C(c2ccccc2)C(c2ccccc2)=C1c1ccccc1	> 100	–
N/N=C1/C2CN3CCN(C2)CC1(c1ccc([N+](=O)[O-])cc1)C3	> 100	–
COc1ccc(-c2cc(=O)c3c(C)cc(C)nc3[nH]2)cc1	> 100	–
O=C1C=C(NCCNC(=S)Nc2ccccc2)c2nccc3c2c1nc1ccccc13	> 100	47 µM
Cc1ccncc1.F[B-](F)(F)F.[Pt+2].c1ccc(-c2cccc(-c3ccccn3)n2)nc1	20.4	–
O=c1[nH]c(=O)n([C@@H]2C[C@H](CO)[C@H](O)C2)cc1/C=C/Br	> 100	–
CC1(C)OCC(C(O)C2OC(C)(C)OC2C=O)O1 (configuration not stated)	> 100	–
O=C(Nc1ccc(Cl)cc1Cl)C(=O)C(C(=O)c1ccc2ccccc2c1)C1OC(=O)c2ccccc21 (configuration not stated)	63.2	–
COc1ccccc1/C=C1\CCC(CCN(C)C)(C2=CCCC2)C1=O (configuration not stated)	36.2	–
Cc1cc(=O)n2nc(SCc3ccccc3)sc2n1	> 100	–
NCCCOCC(=O)O	> 100	–
CCC(=O)O[C@H]1CC[C@H]2[C@@H]3CC[C@H]4CC(=O)[C@H](C)C[C@]4(C)[C@H]3CC[C@]12C	> 100	> 100 µM
CCc1n(Cc2ccc3ccccc3n2)cc[n+]1Cc1ccc2ccccc2n1	41.9	6.33 µM
Nc1cccc2c1C(=O)c1cccc(N)c1C2=O	> 100	–
